According to the RNAGym collection of RNA variant scans (doi:10.1093/nar/gkz1192):
Read counts are not given, so values of variants with three or more changes are uncertain.

B1: CPEB3 Ribozyme (parent)
chain: UAACAGGGGGCCACAGCAGAAGCGUUCACGUCGCAGCCCCUGUCAGAUUCUGGUGAAUCUGCGAAUUCUGCUGUAUAUCUC

Variants of: B1
Assay: self-cleavage, relative activity (ratio to wild type); higher = more cleavage; in vitro, sequencing
Outline: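 Relative activity was defined as the cleaved/total read fraction for a variant divided by the same fraction for the unmutated ribozyme. CPEB3 self-cleaving ribozyme libraries were made by rounds of error-prone PCR, barcoded, and transcribed in vitro with T7 RNA polymerase for 5 hours at 37°C, and cleavage ran through transcription plus a 15 min DNase I step before EDTA. Illumina sequencing of template-switched reverse transcripts gave the reads, and DNA sequencing mapped the barcodes. Averages come from three batches, using variants with at least 5 reads.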

Row | Variant | self-cleavage
1 | A3G G6A C11G G22A A45G U49C | 0.07
2 | A3G G22C U48C U51C U76A | 0.08
3 | A3G U60A A64U U72A | 0.26
4 | A3G G7A A45G U49C U51A G52C | 0.07
5 | A3G G33A A35G U60A | 0.2
6 | A3G U25C A35G U60C | 0.61
7 | A3G C39A U54A U72C | 0.14
8 | C4A A35U C40U U43A A57G | 0.2
9 | A3G G6A A15U A18G A45G A47C | 0.1
10 | A3G U31C U72A U76C | 0.91
11 | A3U A13G G53A A65U | 0.32
12 | A3G G9A A21G A47G U72C | 0.02
13 | A3G C39U U72A | 1.05
14 | A3G G7C G19U U72A U78A | 0.28
15 | A3G G52U U69A | 0.59
16 | A3U G9U U78C | 0.09
17 | A3U C29U U54C A64U | 0.17
18 | A3G G30C U41C | 0.27
19 | A3U A13G U26C A35G | 0.2
20 | A3G G6A A28U U31C | 0.22
21 | A3G U48C U51C U66C A77G | 0.11
22 | A3G G24A A64G | 0.35
23 | A3G G19A U54C U72A U76C | 0.24
24 | A3U A18G G52A | 0.88

Row | Variant | self-cleavage
25 | A3G G7U A77G | 0.46
26 | A3G G9U A56G | 0.28
27 | A3U A56G U67C A77U | 0.48
28 | A3G G7U A45G U58A U76C | 0.08
29 | A3G U31A A35U G36C A64U U74C A75C | 0.07
30 | A3G U41A U43C | 0.37
31 | A3G U54C U58A A64G | 0.46
32 | A3G U49C U72C U78C | 0.55
33 | A3G U41C U72A | 1.01
34 | A3G U26A U51A U80C | 0.81
35 | A3U A21G U41A A47U A64G U67C U78C | 0.08
36 | A3G U25C A47G U60G U66C A77U | 0.14
37 | C4G A13U A15U U31C | 0.82
38 | A3U C11G A15U A35U A77U | 0.82
39 | C4G A21G C68A | 0.23
40 | A3U U26A U43C | 0.55
41 | A3G U26C U58C | 0.45
42 | A3G G7A A21G A35U A64G | 0.05
43 | A3U A13G A15U A45G A47G | 0.29
44 | A3G U43C A47G U48C A56U A64U | 0.25
45 | A3G U48C U54A U60C A75G | 0.09
46 | A3G G9A A15G U67A A77U | 0.12
47 | A3G U26C A56G | 0.4
48 | A3U A18G U25C | 0.3

Row | Variant | self-cleavage
49 | C4A C12U G55A A57G | 1.1
50 | C4G A5G C12U U25C U26C A45U | 0.35
51 | A3U A5G A56G U72C | 0.74
52 | A3U G10U U51A U58C G70A U80C | 0.06
53 | A3G U25C U41C G52A A56U U80C | 0.37
54 | A3G G30A U54A A56U C59U | 0.2
55 | A3U U25C A65G | 0.59
56 | A3G U69A U76G | 0.42
57 | A3U C40U U60C | 0.28
58 | A3U A56G U80C | 1.1
59 | A3U U25G U26A A45U | 0.3
60 | A3G U31C A45G U49C C62U U80A | 0.13
61 | A3G U43A A57G U72C | 1.08
62 | A3U A15U U41C U74C | 0.65
63 | A3U U58A U80C | 0.59
64 | A3U G9U U60C A77U | 0.37
65 | A3U A20G U26A G63C G73U | 1.21
66 | A3G U54C U69A A75U | 0.67
67 | A3U C17A U67A | 0.35
68 | A3G U48C A64G U72C | 0.25
69 | A3G U26C U41C U43A U67A | 0.45
70 | A3U U25A A35U U60G | 0.21
71 | A3G G8A U43C G63A U69G | 0.18
72 | A3U U31C C40U U48C G70U | 0.16

Row | Variant | self-cleavage
73 | A3G U49C A57G U72G | 0.46
74 | A3U U25C G46U | 0.08
75 | A3G G24U U31C A45U U51A U78G | 0.25
76 | A3U A21G U51A C71U | 0.33
77 | C4A A20U U74A | 0.4
78 | A3U A45U U54C C79A | 0.67
79 | A3G G9U C38A A45U | 0.31
80 | A3U A20G A45U U80C | 0.23
81 | A3U G10C G24U A35G U54C U72A | 0.08
82 | A3G G8A G63U A65G U74C | 0.31
83 | A3U C11G A18U C38A | 0.11
84 | A3U A5G A65G | 0.31
85 | A3U A18U U48C | 0.18
86 | A3G U31C A35U A56G U72C | 0.1
87 | A3G U31A C32U | 0.65
88 | C4A A15G A18U A20C C44U U48C | 0.08
89 | A3G G9A U72A | 0.31
90 | A3G U41C U80C | 0.97
91 | A3U U60C U67A U78C | 0.4
92 | A3G U25G U41C | 0.33
93 | A3G G6A C12G U43C A47G U49A | 0.07
94 | A3U A15U A35G U41C C59A A64U | 0.21
95 | A3G G16U A28G U80C | 0.63
96 | A3G G6U U25C U43A A65G | 0.28

Row | Variant | self-cleavage
97 | A3G U25C A45G U67G | 0.24
98 | A3G U41A A56G U67A | 0.21
99 | A3U U31A U51C U67C U72C | 0.22
100 | A3G G16C C38U U41C | 0.08
101 | A3U A13G A35G | 1.12
102 | A3G U26C U31C C62U | 0.33
103 | A3G U25C U69A | 0.19
104 | A3U A18U C32U U49C U66C U74C | 0.31
105 | A3G G6A A20G U26C U58C | 0.07
106 | A3U A21G A35G C68A A75G U80C C81U | 0.81
107 | A3U A13U U41A | 0.22
108 | A3G C40A U72G U80C | 0.17
109 | A3G G7A A13U A64G | 0.27
110 | A3G U41C U69C C71G | 0.28
111 | A3G U49C U60A U76C | 0.62
112 | A3U U41A U54A | 0.28
113 | A3U U31C U80C | 1.04
114 | A3G G6A A18G A56G U66C | 0.08
115 | A3G C40U A45G U67C | 0.24
116 | A3G G19C U48C | 0.37
117 | A3G G24U G46C U48C U60C U74A | 0.11
118 | A3G U41C U54C U60A A64U | 0.35
119 | A3G U26A C40U U60C A77C | 0.17
120 | A3U A15U A28G U72C U76A | 0.58

Row | Variant | self-cleavage
121 | A3U A13U U25C U48C | 0.13
122 | A3U G19A A20G U31C U43C | 0
123 | A3G U26C A35G U48C U49C U60A G61A | 0.31
124 | A3G G7U A20G G53C A57G | 0.41
125 | A3G U25C A75G | 0.47
126 | A3U G9A A13G A20U U31A U78A | 0.07
127 | A3U U51C U58A A65G | 0.17
128 | C4A U41C U51C | 1.24
129 | A3U A13G C17A U26C U43G U60A C68A | 0.02
130 | A3U C12U U67C | 0.56
131 | A3G U26C G33A U58C | 0.16
132 | A3U U41G A45G U49C U80A | 0.47
133 | A3G G9U G24A A28G U60A U67C U69C | 0.07
134 | A3G G9A U26A A57G U60C | 0.35
135 | A3G G10A A20G U26A G33U U48C U58C | 0.06
136 | A3U A5G A13C A21G U25C | 0.74
137 | A3G U51A G52A A57G A77U | 1.14
138 | A3G G10C A21G A47G U49C U51A | 0.05
139 | A3U A5G G7A U43A U54A | 0.13
140 | A3U A45G U80C | 0.74
141 | A3G G7U U51A A56G U60G | 0.15
142 | A3G U41A A47U U54A U67C U72C | 0.21
143 | A3U G6A C29U U49C U72C U80C | 0.29
144 | A3U G9A U25C U74C | 0.11

Row | Variant | self-cleavage
145 | A3G U25C U31G G33C A57G U60A U72C | 0.35
146 | A3G G7A A13U C29U U41G G63A U78C | 0.05
147 | A3G U25C U51C U67C | 0.27
148 | A3U A15G A20G A21G C32U A64G U78C | 0.04
149 | A3U U54C C79U | 1.18
150 | C4A A45U U58C U66C U69A A75U | 0.2
151 | A3U G10A C11G A47C A57U | 0.04
152 | A3G G42U A64G | 0.48
153 | A3U G9A C44A U54C | 0.44
154 | A3G G19U U41A U54A | 0.09
155 | A3U A15U U48C U54C U67C | 0.12
156 | A3U G6A U31C U41A U58A U67A | 0.06
157 | A3U A18G U43C U48C U58C | 0.06
158 | A3G U43C A45G U72C | 0.83
159 | A3G U48C U51G | 0.41
160 | A3G G19U G33C U72C | 0.41
161 | C4G A5U U25C | 0.27
162 | A3U C14G A18U A20G U41C U69A | 1.06
163 | A3G U74C A77U | 1.22
164 | A3G G24A A35G U43C | 0.09
165 | A3U A21U U25C U60C | 0.29
166 | A3G G30U U41C U60C | 0.16
167 | A3U C11G A20G U25A A47U A57U | 0.31
